Measured values taken from PubChem BioAssay AID504333 (National Center for Advancing Translational Sciences (NCATS), 2011).
The campaign covered roughly 360,000 compounds. About 16,000 (4.4%) were called active. Inconclusive means that the source gave no clear call. Such entries were picked first, then a sample of the others. The call rests on the fitted dose curve; in most records, active means well fitted inhibition curve with a large enough effect; inconclusive means small, poorly fitted or top-dose-only effect; inactive means no such curve, though single readings can be large or run the other way. Potencies beside an inconclusive call are fits to weak or partial responses and may not hold up.

Target: Bromodomain adjacent to zinc finger domain protein 2B (Homo sapiens) (UniProt Q9UIF8)
UniProt Q9UIF8, sequence (Q9UIF8 whole entry, looked up, the tested form may be a part): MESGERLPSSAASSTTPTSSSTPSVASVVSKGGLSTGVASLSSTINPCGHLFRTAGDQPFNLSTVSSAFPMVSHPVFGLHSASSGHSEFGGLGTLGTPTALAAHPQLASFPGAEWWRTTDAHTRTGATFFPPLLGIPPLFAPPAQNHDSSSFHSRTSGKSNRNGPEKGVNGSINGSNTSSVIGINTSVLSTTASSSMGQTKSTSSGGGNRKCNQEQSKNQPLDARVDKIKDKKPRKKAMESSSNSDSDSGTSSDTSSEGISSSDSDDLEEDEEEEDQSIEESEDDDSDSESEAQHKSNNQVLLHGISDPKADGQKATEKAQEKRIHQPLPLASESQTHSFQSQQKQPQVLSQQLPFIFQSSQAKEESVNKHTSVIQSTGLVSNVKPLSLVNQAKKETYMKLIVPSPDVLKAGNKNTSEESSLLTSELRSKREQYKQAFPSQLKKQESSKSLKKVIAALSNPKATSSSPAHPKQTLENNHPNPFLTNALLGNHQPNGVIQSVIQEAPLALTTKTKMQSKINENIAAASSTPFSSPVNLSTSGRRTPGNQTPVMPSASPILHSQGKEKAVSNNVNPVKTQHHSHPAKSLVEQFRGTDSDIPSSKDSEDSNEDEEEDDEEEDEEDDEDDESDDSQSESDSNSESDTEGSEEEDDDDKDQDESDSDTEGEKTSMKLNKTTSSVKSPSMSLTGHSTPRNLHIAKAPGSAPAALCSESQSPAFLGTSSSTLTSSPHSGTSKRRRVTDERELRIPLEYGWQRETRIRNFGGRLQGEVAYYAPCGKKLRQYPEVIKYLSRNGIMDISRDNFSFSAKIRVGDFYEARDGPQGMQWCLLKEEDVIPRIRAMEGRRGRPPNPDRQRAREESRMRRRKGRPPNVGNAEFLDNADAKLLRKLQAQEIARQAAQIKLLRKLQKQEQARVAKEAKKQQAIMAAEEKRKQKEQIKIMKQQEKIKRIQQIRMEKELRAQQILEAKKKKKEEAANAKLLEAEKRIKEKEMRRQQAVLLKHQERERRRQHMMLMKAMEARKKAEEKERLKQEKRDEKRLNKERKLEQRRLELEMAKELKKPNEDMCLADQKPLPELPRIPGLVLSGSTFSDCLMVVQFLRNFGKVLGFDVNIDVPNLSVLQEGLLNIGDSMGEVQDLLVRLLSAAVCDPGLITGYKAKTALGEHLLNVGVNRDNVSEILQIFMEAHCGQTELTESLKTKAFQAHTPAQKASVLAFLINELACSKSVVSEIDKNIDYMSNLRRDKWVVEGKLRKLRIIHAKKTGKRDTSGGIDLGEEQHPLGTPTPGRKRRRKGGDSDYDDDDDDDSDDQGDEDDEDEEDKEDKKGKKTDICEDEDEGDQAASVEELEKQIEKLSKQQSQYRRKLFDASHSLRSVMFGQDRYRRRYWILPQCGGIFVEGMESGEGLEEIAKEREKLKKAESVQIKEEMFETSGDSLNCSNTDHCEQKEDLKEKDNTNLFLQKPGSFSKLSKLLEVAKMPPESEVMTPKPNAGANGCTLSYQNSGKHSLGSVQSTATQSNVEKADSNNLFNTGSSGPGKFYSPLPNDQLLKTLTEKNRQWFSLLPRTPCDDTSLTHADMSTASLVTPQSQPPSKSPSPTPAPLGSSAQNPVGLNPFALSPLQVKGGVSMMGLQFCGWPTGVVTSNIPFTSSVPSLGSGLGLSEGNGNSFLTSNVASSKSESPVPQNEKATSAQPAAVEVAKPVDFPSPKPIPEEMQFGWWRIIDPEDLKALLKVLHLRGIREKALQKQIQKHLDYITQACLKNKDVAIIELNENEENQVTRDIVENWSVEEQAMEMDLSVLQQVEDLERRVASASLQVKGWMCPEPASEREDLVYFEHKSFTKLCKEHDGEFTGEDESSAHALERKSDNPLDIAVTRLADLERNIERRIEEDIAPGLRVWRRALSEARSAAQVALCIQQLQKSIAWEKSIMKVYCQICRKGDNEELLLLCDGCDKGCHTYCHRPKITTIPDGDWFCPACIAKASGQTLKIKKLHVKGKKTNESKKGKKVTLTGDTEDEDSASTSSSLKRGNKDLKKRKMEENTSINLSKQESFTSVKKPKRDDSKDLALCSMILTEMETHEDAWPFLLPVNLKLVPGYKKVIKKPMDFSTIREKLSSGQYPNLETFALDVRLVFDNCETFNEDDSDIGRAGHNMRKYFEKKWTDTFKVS
Assay: qHTS Assay for Inhibitors of BAZ2B; further: nearly all actives have a fitted effect of over 60% in size
Conditions: AlphaScreen BAZ2B-H3K14Ac peptide displacement; activity change, negative = inhibition: at 114 µM (top of the series)
Method in brief: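 Compounds, titrated to a top concentration of 110 uM, were incubated 30 min at room temperature with preformed BAZ2B/acetyl-K14 H3 peptide complex (50 nM each). Proximity signal was measured by AlphaScreen after 20 min with beads.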
On the % scale 0 is the no-effect control and ±100 the full control effect; potency means the concentration at half of the fitted maximal effect; tags describe the fitted curve by direction and shape.

Row | SMILES | Potency | activity change, negative = inhibition
1 | O=C(CN1CCOCC1)Nc1ncc(Cc2cccc(Cl)c2)s1 | inconclusive: 79.4 µM [inhibitor, single point] | –
2 | Cc1cc(C)c(OCCOCCN(C)C)c(Br)c1 | inconclusive: 89.1 µM [inhibitor, single point] | –
3 | Cc1ccc(NC(=O)CN2C(=O)CCc3cc(S(=O)(=O)N4CCCCC4)ccc32)cc1N(C)C | inconclusive: 50.1 µM [inhibitor, partial curve] | –
4 | Cc1csc(NC(=O)CSc2nnc(-c3ccoc3C)n2Cc2ccco2)n1 | inconclusive: 89.1 µM [inhibitor, single point] | –
5 | O=C(O)c1ccc(N2C(=O)CC(N3CCN(c4cccc(C(F)(F)F)c4)CC3)C2=O)cc1 (configuration not stated) | – | inactive: 7.01%
6 | Cn1cc(/C=C2\SC(=O)N(c3ccc(O)cc3)C2=O)c2ccccc21 | inconclusive: 70.8 µM [inhibitor, single point] | –
7 | O=C(Cc1cccs1)Nc1nc2c(s1)CCCC2 | inconclusive: 79.4 µM [inhibitor, single point] | –
8 | Cn1cccc1/C=N/NC(=O)c1cccc(OC(F)(F)C(F)F)c1 | inconclusive: 50.1 µM [inhibitor, partial curve] | –
9 | COc1ccc(CNC(=O)c2c(Nc3ccccc3C)sc(C(=O)c3ccccc3)c2N)cc1 | inconclusive: 15.8 µM [inhibitor, full curve] | –
10 | C=Cc1ccc(C(=O)N2CCCC(Nc3ccc4c(c3)OCCO4)C2)cc1 (configuration not stated) | inconclusive: 35.5 µM [inhibitor, partial curve] | –
11 | CCc1cc(C(=O)N=Nc2c(O)[nH]c3c(Br)cc(Br)cc23)c2ccccc2n1 | inconclusive: 50.1 µM [inhibitor, partial curve] | –
12 | COc1ccc(NC(=S)N2CCCC2)c(OC)c1 | – | inactive: -1.21%
13 | COc1ccc(N2CCN(C(=S)NC(=O)c3cccs3)CC2)c([N+](=O)[O-])c1 | inconclusive: 20 µM [inhibitor, full curve] | –
14 | O=C(O)CCCN1C(=O)/C(=C/c2ccc(-c3nc4ccccc4s3)o2)SC1=S | active: 10 µM | –
15 | COc1cc(CN(C(=O)COc2ccc(Cl)c(C)c2)c2ccccn2)cc(OC)c1OC | – | inactive: -4.86%
16 | COc1ccc(CCNC(=O)CCCn2nc(C)c3sc4ccccc4c3c2=O)cc1OC | inconclusive: 39.8 µM [inhibitor, partial curve] | –
17 | OCCN(Cc1ccccc1)CC1CC=CCC1 (configuration not stated) | active: 79.4 µM | –
18 | COC(=O)/C(=C/Nc1cccc2ccccc12)[N+](=O)[O-] | inconclusive: 4.47 µM [inhibitor, full curve, poor fit] | –
19 | COCCCN=C(c1ccco1)n1c(=S)nc(-c2ccco2)n(CCCOC)c1=S | inconclusive: 50.1 µM [inhibitor, partial curve] | –
20 | CCN(CC)P(=O)(/C(Cl)=C\Nc1c(C)n(C)n(-c2ccccc2)c1=O)N(CC)CC | inconclusive: 89.1 µM [inhibitor, single point] | –
21 | CN(C)c1ccc(C(c2nnnn2C(C)(C)C)N2CCc3ccccc3C2)cc1 (configuration not stated) | inconclusive: 89.1 µM [inhibitor, single point] | –
22 | COc1cc2[nH]c(C(=O)N3CCc4ccccc4C3)cc2c(OC)c1OC | inconclusive: 79.4 µM [inhibitor, single point] | –
23 | OCCNc1cnc2ccccc2n1 | – | inactive: -11.4%
24 | COc1ccc2sc(-c3ccc(SC)cc3)c(C#CC(C)(C)O)c2c1 | inconclusive: 100 µM [inhibitor, single point] | –

Row | SMILES | Potency | activity change, negative = inhibition
25 | COc1cccc(/C=C2\SC(=S)N(CCCC(=O)N3CCCCC3)C2=O)c1 | active: 11.2 µM | –
26 | C/C=C/c1ccc(OCCCNC2CCCC2)c(OC)c1 | inconclusive: 89.1 µM [inhibitor, single point] | –
27 | CCOC(=O)CCS(=O)(=O)c1nc(-c2ccccc2)cc(C(F)(F)F)n1 | – | inactive: -3.66%
28 | CC1(C(=O)Nc2ncc(Cc3ccc(Br)cc3)s2)Cc2ccccc2C(=O)O1 (configuration not stated) | inconclusive: 28.2 µM [inhibitor, single point] | –
29 | COc1ccc(S(=O)(=O)Nc2cccc(-c3ccc(N4CCCCCC4)nn3)c2)c(OC)c1 | inactive | –
30 | CN(CC(=O)Nc1ccccc1Br)C(=O)c1cccn1C | inconclusive: 89.1 µM [inhibitor, single point] | –
31 | C/C(CCc1ccccc1)=N/NC(=O)C(=O)NCc1ccccc1 | inconclusive: 79.4 µM [inhibitor, single point] | –
32 | Cc1ccc(N2CC(NC(=O)C3CCCCC3)CC2=O)cc1C (configuration not stated) | – | inactive: 2.84%
33 | Cc1ccc(NC(=O)C(C)c2cccc(C(=O)c3ccccc3)c2)cc1O (configuration not stated) | inconclusive: 70.8 µM [inhibitor, single point] | –
34 | CCOC(=O)Cn1nnnc1C(CC)N(Cc1cccs1)Cc1cc2ccc(OC)cc2[nH]c1=O (configuration not stated) | inconclusive: 79.4 µM [inhibitor, partial curve] | –
35 | Cc1ccc(CN2C(=O)C3CCCN3c3ncccc32)cc1 (configuration not stated) | inconclusive: 70.8 µM [inhibitor, single point] | –
36 | Cc1cccc(/N=C/c2sc3ccccc3c2O)n1 | inconclusive: 44.7 µM [inhibitor, partial curve] | –
37 | CCOc1ccc(NC(=O)CC2C(=O)N(CC)C(=S)N2CCN2CCOCC2)cc1 (configuration not stated) | – | inactive: -9.3%
38 | CC(Oc1cccc(Cl)c1)C(=O)NCc1ccc(S(N)(=O)=O)cc1 (configuration not stated) | – | inactive: 4.82%
39 | CC1CCCCN1S(=O)(=O)c1ccc(C(=O)Nc2nnc(C3CC3)o2)cc1 (configuration not stated) | active: 50.1 µM | –
40 | CSc1ccc(CCNC(=O)c2ccc(-n3c(C)cc4c3CCCC4)cc2)cc1 | – | inactive: -14.6%
41 | CCOCc1nnc(NC(=O)c2cc(Cl)ccc2OC)s1 | – | inactive: 10.8%
42 | CCCS(=O)(=O)N1CCN(Cc2c[nH]c3ccccc23)CC1 | active: 50.1 µM | –
43 | CC1=C(C(=O)OCc2ccccc2)C(c2ccc(C(F)(F)F)cc2)NC(=O)N1CCCCCC(=O)O (configuration not stated) | inconclusive: 89.1 µM [inhibitor, single point] | –
44 | c1ccc(CSc2ccc(-c3ccccn3)nn2)nc1 | active: 4.47 µM | –
45 | CNc1nn(-c2cccc(Cl)c2)nc1N | inconclusive: 56.2 µM [inhibitor, partial curve] | –
46 | CC(Sc1n[nH]c(N)n1)C(=O)Nc1ccc(Cl)cn1 (configuration not stated) | – | inactive: -1.62%
47 | O=C1CS/C(=C\[N+](=O)[O-])N1c1ccccc1 | inconclusive: 89.1 µM [inhibitor, single point] | –
48 | CCOc1ccc(C(=O)Nc2cccc(-c3nc4cccnc4s3)c2C)cc1OCC | – | inactive: -13.3%

Row | SMILES | Potency | activity change, negative = inhibition
49 | Cc1nc(C(=O)O)cc2c1[nH]c1ccccc12 | active: 50.1 µM | –
50 | CCOc1ccc2nc(COC(=O)c3ccco3)c(C(C)=O)[n+]([O-])c2c1 | inconclusive: 89.1 µM [inhibitor, single point] | –
51 | O=C(Nc1ccc2c3c(cccc13)CC2)c1cccc([N+](=O)[O-])c1 | inconclusive: 70.8 µM [inhibitor, single point] | –
52 | O=C(Nc1nc(-c2ccccn2)cs1)c1cc(Cl)ccc1[N+](=O)[O-] | active: 14.1 µM | –
53 | Cc1ccc(N2C(=O)CS(=O)C(c3ccccc3)C2=O)cc1C (configuration not stated) | inconclusive: 50.1 µM [inhibitor, partial curve] | –
54 | CCN(c1ccccc1)c1nnc(NC(=O)Nc2ccc(C)cc2)s1 | – | inactive: 0.701%
55 | CN(C)c1ccc(C(CNS(=O)(=O)c2ccc([N+](=O)[O-])cc2)N2CCCC2)cc1 (configuration not stated) | – | inactive: 6.25%
56 | N=c1c(C(=O)NCc2ccccc2)cc2c(=O)n3ccccc3nc2n1Cc1ccco1 | inconclusive: 89.1 µM [inhibitor, single point] | –
57 | O=C(Nc1ccccc1Cl)c1cc2c(-c3ccccc3)nn(-c3ccccc3)c2s1 | – | inactive: 1.13%
58 | Fc1ccc(N2CCN(c3nc(CN4CCOCC4)nc4scc(-c5ccccc5)c34)CC2)cc1 | active: 11.2 µM | –
59 | CCc1cccc(OCCOCCN2CCCC2)c1 | active: 79.4 µM | –
60 | Cc1nc(N2CCN(Cc3ccc4c(c3)OCO4)CC2)c2cc(-c3ccccc3)sc2n1 | inconclusive: 28.2 µM [inhibitor, full curve] | –
61 | COc1ccc(NN=Nc2nc3c([nH]2)c(=O)n(C)c(=O)n3C)cc1 | active: 56.2 µM | –
62 | Cc1oc(/C=N/NC(=O)CN(c2ccccc2Cl)S(C)(=O)=O)cc1Br | inconclusive: 44.7 µM [inhibitor, partial curve] | –
63 | Cc1cc(C(=O)N2CCN(C(c3ccccc3)c3ccccc3)CC2)on1 | – | inactive: 8.05%
64 | COC(=O)c1nc(NC(=O)c2cc(OC)c(OC)c(OC)c2)n[nH]1 | inconclusive: 100 µM [inhibitor, single point] | –
65 | N#Cc1c(C(F)(F)F)cc(-c2cccs2)nc1SCc1cccnc1 | inconclusive: 89.1 µM [inhibitor, single point] | –
66 | CCc1ccc2c(c1)NC(c1cccnc1)=NC(c1ccc(C(C)(C)C)cc1)=N2 | inconclusive: 3.55 µM [inhibitor, full curve] | –
67 | COc1cc(C2CC(=O)Nc3c2c(C)nn3-c2nncc(-c3ccccc3)n2)cc(OC)c1OC (configuration not stated) | – | inactive: -14.2%
68 | O=C(CSc1nc(-c2cccs2)nc2cc(=O)[nH]n12)Nc1ccccc1Cl | active: 79.4 µM | –
69 | Cc1oc(-c2ccccc2Cl)[n+]([O-])c1C | inconclusive: 39.8 µM [inhibitor, single point] | –
70 | CC(=O)NC(Cc1ccc(F)c(F)c1)C(=O)NC1CCN(c2c(Cc3ccccc3)c(C)nc3ncnn23)CC1 (configuration not stated) | inconclusive: 70.8 µM [inhibitor, single point] | –
71 | CSc1ccc(CCNC(=O)c2ccc(CS(=O)Cc3ccc(Cl)cc3)o2)cc1 (configuration not stated) | inconclusive: 89.1 µM [inhibitor, single point] | –
72 | CCN(CC(=O)Nc1c(F)cccc1F)C(=O)CCc1nc2sc3c(c2c(=O)[nH]1)CCCC3 | active: 50.1 µM | –
